Test results taken from PubChem BioAssay AID686970 (National Center for Advancing Translational Sciences (NCATS), 2013).
About 6,000 (1.7%) of roughly 360,000 compounds were called active. Inconclusive means that the source gave no clear call. Such entries were picked first, then a sample of the others. Calls come from the whole dose curve; as a rule, active = well fitted cell-killing curve with a large enough effect; inconclusive = small, poorly fitted or top-dose-only effect, or effect the other way; inactive = flat fitted curve, though single readings scatter. No potency is given beside an inconclusive call; the fits are too rough.

Assay: qHTS for induction of synthetic lethality in tumor cells producing 2HG: qHTS for the HT-1080-NT fibrosarcoma cell line;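 note: NT is the 2HG producing partner of a matched IDH1 knockdown line; nearly all actives have a fitted effect of over 55% in size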;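 for activity, negative = less viability: 0% = DMSO-treated cells and -100% = media-only wells without cells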
Settings: HT-1080-NT fibrosarcoma viability, CellTiter-Glo ATP luminescence, 48 h; activity, negative = less viability: at 46.1 µM (top of the series) unless noted
Method in brief: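 Luminescent CellTiter-Glo readout after 48 hours of compound exposure at 37 degrees C defined viability of HT-1080-NT cells. Activity was normalized to DMSO wells and cell-free media wells; concentration-response curves were fitted and assigned curve classes.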
Potency is the fitted concentration of half-maximal effect; tags give direction and shape of the fitted curve.

Which Potency does the source give for COc1ccccc1CN1CCC(CNS(=O)(=O)c2cc(-c3cc(C)no3)ccc2OC)CC1 here?
Its Potency is inconclusive [cytotoxic, single point].

For Cc1cccc(S(=O)(=O)Nc2nc3ccccc3nc2NCc2ccco2)c1, which Potency is on record?
The Potency was inconclusive [cytotoxic, single point].

With CC1C(=O)N(Cc2cccc(F)c2)c2ccccc2N1C(=O)c1ccccc1 (stereo not drawn) as the compound, how does the Potency read?
Its Potency is “inactive”.

For CC1(C)Cc2c(C#N)c(N3CCN(C(=O)c4ccccc4)CC3)nc(Cc3ccccc3)c2CO1, which Potency is on record?
The Potency was inconclusive [cytotoxic, single point].

With CN(C)C(=O)CSc1nnc(-c2ccco2)n1-c1ccccc1 as the compound, how does the Potency read?
The Potency was “inactive”.

For COc1ccc(S(=O)(=O)NCc2ccccn2)cc1NC(=O)c1ccc(C)cc1, which Potency is on record?
Its Potency is active: 5.8 µM.

With Cc1nn(CCc2nn[nH]n2)c2nc(-c3ccc(Br)cc3)cc(C(F)(F)F)c12 as the compound, how does the Potency read?
The Potency was inconclusive [cytotoxic, partial curve].

With O=C(Nc1ccc(Oc2c(F)c(F)c(F)c(F)c2F)cc1)OC1CCN2Cc3ccccc3N=C12 (stereo not drawn) as the compound, how does the Potency read?
The Potency was inconclusive [cytotoxic, full curve].

For CC1(C(=O)Nc2ccc(Cl)c(Cl)c2)CCN1C(=O)Cc1ccc(-c2ccccc2)cc1 (stereo not drawn), which Potency is on record?
Its Potency is inconclusive [cytotoxic, full curve].

Which Potency does the source give for Cc1cc(-c2c(C)[nH]n(-c3ccccc3)c2=O)n[nH]1 here?
Its Potency is “inactive”.

For O=C(Nc1ccc(Cl)cn1)c1ccccc1[N+](=O)[O-], which Potency is on record?
Its Potency is inconclusive [cytotoxic, partial curve].

For CCOc1ccc(/C=N/NC(=O)c2c(C)n(C)c3ccc(OC)cc23)cc1, which Potency is on record?
Its Potency is inconclusive [cytotoxic, single point].

With CCCCOc1ccc(C(=O)N/C(=C/c2cccc([N+](=O)[O-])c2)C(=O)O)cc1 as the compound, how does the Potency read?
The Potency was “inactive”.

For NC1=NC(c2cn(-c3ccccc3)nc2-c2cccs2)n2c(nc3ccccc32)N1 (stereo not drawn), which Potency is on record?
Its Potency is active: 18.4 µM.

Which Potency does the source give for CCCCN1C(=O)c2ccc(C(=O)NCc3ccco3)cc2C1=O here?
Its Potency is “inactive”.

Which activity, negative = less viability does the source give for COc1ccc(NC(=O)CN2C(=O)C(C)SC(C)C2=O)cc1 (stereo not drawn) here?
Its activity, negative = less viability is inconclusive: 10.7%.

With CCCC(=O)Nc1ccc2nn(-c3ccc(OC)cc3)nc2c1 as the compound, how does the Potency read?
The Potency was inconclusive [cytotoxic, single point].

With O=C(COC(=O)CNC(=O)c1ccc(-c2ccccc2)cc1)NCc1ccco1 as the compound, how does the Potency read?
Its Potency is “inactive”.

For CC1CN(CC(=O)Nc2nc3ccccc3s2)CC(C)O1 (stereo not drawn), which Potency is on record?
Its Potency is “inactive”.

For O=C1NC(=Nc2ccccc2Cl)S/C1=C\c1cccc([N+](=O)[O-])c1, which Potency is on record?
The Potency was inconclusive [cytotoxic, single point].

For COc1ccc(C)cc1NC(=O)CCN1CCN(c2ccccc2)CC1, which Potency is on record?
Its Potency is “inactive”.

With Cc1ccc(C(=O)NC(C(=O)OCc2cn3cc(Cl)ccc3n2)C(C)C)cc1 (stereo not drawn) as the compound, how does the Potency read?
Its Potency is “inactive”.

With Cc1ccc(Oc2nnc(-c3cccs3)c3ccccc23)cc1C as the compound, how does the Potency read?
The Potency was inconclusive [cytotoxic, single point].

Which Potency does the source give for Cn1ccc2c(N3c4ccccc4CCc4ccccc43)cc3c(c21)C1CCC3O1 (stereo not drawn) here?
The Potency was inconclusive [cytotoxic, single point].

For CN1CCN(C(=O)/C=C/c2cn(-c3ccccc3)nc2-c2ccc3c(c2)OCCO3)CC1, which Potency is on record?
Its Potency is active: 23.1 µM.

Which Potency does the source give for Cc1nc(-c2ccccc2)sc1C1(C)CC(c2c(Cl)cccc2Cl)=NO1 (stereo not drawn) here?
The Potency was inconclusive [cytotoxic, single point].

For CC(C)(C)c1ccc(OCCOc2ccc(C(C)(C)C)cc2NC=O)c(NC=O)c1, which Potency is on record?
Its Potency is inconclusive [cytotoxic, single point].

Which Potency does the source give for COc1ccc(N=C2S/C(=C\c3ccc(Cl)c([N+](=O)[O-])c3)C(=O)N2CCN(C)C)cc1 here?
The Potency was inconclusive [cytotoxic, single point].

For Cc1ccc(C(=O)O/N=C(\N)c2ccccn2)cc1, which Potency is on record?
Its Potency is active: 14.6 µM.

For COc1ccc(C(=O)Nn2c(SCC(=O)N3CCC(C)CC3)nc3ccccc3c2=O)cc1, which Potency is on record?
The Potency was inconclusive [cytotoxic, single point].

With CSc1nc(NCCOCCO)c2sc3nc(-c4ccco4)c4c(c3c2n1)CCC4 as the compound, how does the Potency read?
Its Potency is inconclusive [cytotoxic, single point].

Which Potency does the source give for CC(C)c1ccc(S(=O)(=O)/N=C2\C=C(NS(=O)(=O)c3ccccc3)C(=O)c3ccccc32)cc1 here?
The Potency was “inactive”.

For OC(CNc1nc(C(F)(F)F)nc2ccccc12)c1ccccc1 (stereo not drawn), which Potency is on record?
The Potency was inconclusive [cytotoxic, partial curve].

With N=c1n(CCCOc2ccc(Br)cc2)c2ccccc2n1CC(N)=O as the compound, how does the Potency read?
The Potency was inconclusive [cytotoxic, single point].

Which activity, negative = less viability does the source give for O=C(Nc1ccc(F)cc1)C(c1cccc(F)c1)N1CCN(c2cccc(C(F)(F)F)n2)CC1 (stereo not drawn) here?
The activity, negative = less viability was inconclusive: -30.7% [cytotoxic].

With CCCCC(=O)N(C)c1c(CC)nc2c(OCc3cccc(Cl)c3)cccn12 as the compound, how does the Potency read?
Its Potency is inconclusive [cytotoxic, single point].

For O/N=C(\c1ccc(Cl)cc1Cl)c1ncc(C(F)(F)F)cc1Cl, which Potency is on record?
Its Potency is inconclusive [cytotoxic, single point].

With Cc1cc(C)c2cc(CN(CC3CCCO3)C(=S)NCc3ccco3)c(=O)[nH]c2c1 (stereo not drawn) as the compound, how does the Potency read?
Its Potency is “inactive”.

With CC[C@H](C)[C@@H]1OC(=O)[C@@H](C)[C@@H](CC)NC(=O)[C@H](C)N(C)C(=O)C(C)(C)C(=O)C(C)NC(=O)[C@H](Cc2ccccc2)N(C)C(=O)[C@H](C(C)C)N(C)C(=O)CNC(=O)[C@H](CC(C)C)N(C)C(=O)CNC1=O (stereo partly drawn) as the compound, how does the Potency read?
Its Potency is active: 1.3 µM.

Which Potency does the source give for N#Cc1c(C(F)(F)F)cc(=O)n2c1[nH]c1ccccc12 here?
The Potency was active: 4.61 µM.

For COc1cccc(C(=O)N2C(C(C)C)COc3cc(Br)ccc3S2(=O)=O)c1 (stereo not drawn), which Potency is on record?
The Potency was inconclusive [cytotoxic, single point].

With C/C=C/c1ccc(OCCCCN(C)Cc2ccccc2)c(OC)c1 as the compound, how does the Potency read?
The Potency was inconclusive [cytotoxic, single point].

With CC(C)c1ccc(/C=N/NC(=O)CCNC(=O)c2ccccc2)cc1 as the compound, how does the Potency read?
The Potency was inconclusive [cytotoxic, single point].

For Cc1cccc(OCC(=O)Nc2ccc(N3CCN(C(=O)c4ccco4)CC3)cc2)c1, which Potency is on record?
The Potency was inconclusive [cytotoxic, single point].

For CCc1ccc(-c2cc(C)no2)cc1S(=O)(=O)NCCCN1CCN(c2ccccc2)CC1, which Potency is on record?
The Potency was active: 18.4 µM.

With CCc1cc2ccc(OC)cc2nc1SCC(=O)N1CCN(C(=O)c2ccco2)CC1 as the compound, how does the Potency read?
The Potency was inconclusive [cytotoxic, single point].

Which Potency does the source give for Cc1ccccc1-n1c(SCC(=O)Nc2ccccc2Cl)nc2n[nH]c(C)c2c1=N here?
The Potency was inconclusive [cytotoxic, single point].

For Cn1cc(-c2nnnn2-c2ccccc2)c(=O)c2ccccc21, which Potency is on record?
The Potency was “inactive”.

For COc1ccc(S(=O)(=O)N2CCCCC2)cc1NC(=O)CCc1nc2ccccc2c(=O)[nH]1, which Potency is on record?
Its Potency is “inactive”.

With CCN(C(=O)c1ccc2c(SCC(=O)O)c3c(nc2c1)CCC3)c1cc(Cl)ccc1OC as the compound, how does the Potency read?
The Potency was “inactive”.

With COc1nc(=O)n(C2OC(CO)C(O)C2O)cc1C (stereo not drawn) as the compound, how does the Potency read?
Its Potency is “inactive”.

Which Potency does the source give for CC(OC(=O)c1ccc(Cl)c([N+](=O)[O-])c1)C(=O)N1CCN(Cc2ccccc2)CC1 (stereo not drawn) here?
Its Potency is “inactive”.

With O=C1NCC(c2ccccc2)C1C(=O)N/N=C\c1ccc(-c2cccc(Cl)c2Cl)o1 (stereo not drawn) as the compound, how does the Potency read?
The Potency was inconclusive [cytotoxic, single point].

Which Potency does the source give for COc1ccc(-c2nc(SC(C)C(=O)NCC3CCCO3)n[nH]2)cc1 (stereo not drawn) here?
Its Potency is inconclusive [cytotoxic, single point].

Which Potency does the source give for CCn1c(NC(=O)c2cccs2)nc2ccccc21 here?
The Potency was inconclusive [cytotoxic, single point].

With COc1ccc(-c2ccc(NCCC3=CCCCC3)nn2)cc1OC as the compound, how does the Potency read?
Its Potency is inconclusive [cytotoxic, full curve].

With CSc1ncccc1C(=O)NC1CCCc2c1cnn2-c1ccc(C)c(C)c1 (stereo not drawn) as the compound, how does the Potency read?
The Potency was inconclusive [cytotoxic, single point].

For CN(C)c1cc[n+](CC(=O)c2ccc(OC(F)F)cc2)cc1, which Potency is on record?
Its Potency is inconclusive [cytotoxic, partial curve].

With CCn1nc(C(=O)NNC(=O)c2ccccc2OCc2c(C)noc2C)c2ccccc2c1=O as the compound, how does the Potency read?
The Potency was inconclusive [cytotoxic, single point].

With C#CCOCCOCCOCCNc1nc(N2CCN(C(=O)CCCCCCCCCCNC(=O)Cn3cc(C[C@@H](C)O)nn3)CC2)nc(N2CCN(C(=O)CCCCCCCCCCNC(=O)[C@@H]([C@H](C)CC)n3cc(CCCCCN)nn3)CC2)n1 as the compound, how does the Potency read?
The Potency was active: 18.4 µM.

Which Potency does the source give for CCn1ncc(/C=C/C(=O)Nc2c(C)nn(Cc3ccc(Cl)cc3Cl)c2C)c1C here?
The Potency was inconclusive [cytotoxic, single point].

Which Potency does the source give for Cc1ccc(C(C)C)c(OCc2ccc(C(=O)N/N=C/c3cccc(O)c3O)cc2)c1 here?
The Potency was active: 9.2 µM.

For COc1ccccc1C(=O)NC1CCN(C(=O)Nc2ccc(F)cc2)CC1, which Potency is on record?
Its Potency is “inactive”.

Which Potency does the source give for Fc1ccc(/C=C2\CCCC3=C2Nc2ncnn2C3c2ccc(F)cc2)cc1 (stereo not drawn) here?
Its Potency is active: 7.31 µM.

For O=C(OCc1ccc(O)cc1)c1c(-c2ccsc2)oc2ccc(N3CCOCC3)cc12, which Potency is on record?
Its Potency is inconclusive [cytotoxic, partial curve].

Which Potency does the source give for O=C(CN1C(=O)NC2(CCCc3ccccc32)C1=O)NCC(F)(F)F (stereo not drawn) here?
The Potency was “inactive”.

With Cc1nn(-c2ccccc2)c(N2CCCCC2)c1/C=N/O as the compound, how does the Potency read?
The Potency was inconclusive [cytotoxic, single point].

For CC1CCC/C(=C\Nc2ccc(O)cc2)C1=O (stereo not drawn), which Potency is on record?
Its Potency is “inactive”.
